Earlier results on one molecule are cited in patent publication US20120207753A1, “METHODS OF USING CD44 FUSION PROTEINS TO TREAT CANCER” (CENTRE HOSPITALIER UNIVERSITAIRE VAUDOIS, priority 2009, published 2012).

The test system of the data set is melanoma. The note with it: Ahrens et al., 2001.

B1: Soluble CD44: soluble CD44 of Ahrens et al., 2001 (protein)
extracellular domain: [here about 200 residues without letters]ATTLMSTSATATETATKRQETWDWFSWLFLPSESKNHLHTTTQMAGTSSNTISAGWEPNEENEDERDRHLSFSGSGIDDDEDFISSTISTTPRAFDHTKQNQDWTQWNPSHSNPEVLLQTTTRMTDVDRNGTTAYEGNWNPEAHPPLIHHEHHEEEETPHSTSTIQATPSSTTEETATQKEQWFGNRWHEGYRQTPKEDSHSTTGTAAASAHTSHPMQGRTTPSPEDSSWTDFFNPISHPMGRGHQAGRRMDMDSSHSITLQPTANPNTGLVEDLDRTGPLSMTTQQSNSQSFSTSHEGLEEDKDHPTTSTLTSSNRNDVTGGRRDPNHSEGSTTLLEGYTSHYPHTKESRTFIPVTSAKTGSFGVTAVTVGDSNSNVNRSLSGDQDTFHPSGGSHTTHGSESDGHSHGSQEGGANTTSGPIRTPQIPE
modifications: extracellular domain
As to B1, the melanoma tumor growth entry is “inhibits melanoma tumor growth”.
